Paper PMC4336329 (PLoS ONE, 2015)
The campaign covered roughly 310,000 compounds. About 14,000 (4.5%) showed an effect of 50% or more. The effect is printed as a negative number. Some of the results follow.

Biological target: human ether-à-go-go-related gene (hERG) potassium channel (human, UniProt Q12809)
Assay: primary screen, population patch clamp on CHO cells stably expressing hERG
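Note: peak tail current of the secondary pulse compared with the same well before compound.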

human ether-à-go-go-related gene (hERG) potassium channel, sequence (Q12809 whole entry, looked up): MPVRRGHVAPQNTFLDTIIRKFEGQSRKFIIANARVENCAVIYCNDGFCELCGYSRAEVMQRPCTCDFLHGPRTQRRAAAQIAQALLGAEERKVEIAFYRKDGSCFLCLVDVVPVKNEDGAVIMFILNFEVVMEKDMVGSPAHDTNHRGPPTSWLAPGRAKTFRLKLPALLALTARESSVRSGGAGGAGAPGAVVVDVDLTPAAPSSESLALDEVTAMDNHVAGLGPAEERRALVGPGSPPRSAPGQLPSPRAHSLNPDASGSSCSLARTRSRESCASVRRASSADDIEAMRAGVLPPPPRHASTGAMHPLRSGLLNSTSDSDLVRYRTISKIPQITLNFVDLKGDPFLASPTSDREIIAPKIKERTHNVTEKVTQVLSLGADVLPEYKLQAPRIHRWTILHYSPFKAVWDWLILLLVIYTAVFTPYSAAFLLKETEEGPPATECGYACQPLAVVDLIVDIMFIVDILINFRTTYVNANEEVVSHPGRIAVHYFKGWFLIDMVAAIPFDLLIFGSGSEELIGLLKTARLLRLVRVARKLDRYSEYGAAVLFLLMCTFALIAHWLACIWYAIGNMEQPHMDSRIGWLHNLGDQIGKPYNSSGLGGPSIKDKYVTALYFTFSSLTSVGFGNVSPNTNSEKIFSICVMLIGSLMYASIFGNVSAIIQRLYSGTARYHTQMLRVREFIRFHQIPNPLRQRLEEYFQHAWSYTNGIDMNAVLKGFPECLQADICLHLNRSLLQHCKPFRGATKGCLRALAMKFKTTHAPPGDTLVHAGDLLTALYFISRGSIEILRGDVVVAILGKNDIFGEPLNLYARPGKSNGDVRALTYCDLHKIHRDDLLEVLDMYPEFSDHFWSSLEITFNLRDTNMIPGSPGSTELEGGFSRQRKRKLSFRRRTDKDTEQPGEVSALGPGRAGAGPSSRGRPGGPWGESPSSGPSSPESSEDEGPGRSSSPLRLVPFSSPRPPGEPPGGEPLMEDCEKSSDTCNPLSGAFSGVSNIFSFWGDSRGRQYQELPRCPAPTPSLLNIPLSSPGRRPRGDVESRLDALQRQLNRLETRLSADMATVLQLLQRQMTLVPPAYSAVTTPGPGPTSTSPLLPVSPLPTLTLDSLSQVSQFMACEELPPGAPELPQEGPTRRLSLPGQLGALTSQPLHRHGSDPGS

Row | SMILES | hERG current change (%, negative = inhibition) at 10uM [%]
1 | O=C(C1CCC1)N1CCc2cc(S(=O)(=O)Nc3ccc4c(c3)OCCO4)ccc21 | 17.7
2 | CCOC1=NN(c2ccccc2)C(=O)/C1=C\N(C)C | -2.73
3 | Cc1onc(-c2c(F)cccc2Cl)c1C(=O)N1CCCCC1 | 3.59
4 | O=C(Nc1ccccc1)N1CCCN(Cc2c(F)cccc2Cl)CC1 | -13.3
5 | CCCCn1c(N)c(N(CC)C(=O)c2cc(Br)ccc2Cl)c(=O)[nH]c1=O | 5.91
6 | O=C(Nc1ccnn1C1CCN(CCCc2ccccc2)CC1)c1ccccc1Cl | -82.2
7 | COc1ccc(-c2csc(NS(=O)(=O)c3ccc([N+](=O)[O-])cc3)n2)cc1 | 8.51
8 | O=[N+]([O-])/C(C(Cl)=C(Cl)Cl)=C(\Nc1ccc(F)cc1)n1cncn1 | 17.1
9 | COCCNC(=S)N(Cc1cccs1)Cc1cc2cccc(C)c2[nH]c1=O | 11.6
10 | C[N+]1(CCOS(=O)C23CC4CC(CC(C4)C2)C3)CCOCC1.[Cl-] (stereo not drawn) | 19.3
11 | CC(=O)Nc1ccc(S(=O)(=O)N(C)CC(=O)Nc2ccccc2N2CCOCC2)cc1 | 6.08
12 | O=C1/C(=C/c2ccc(F)cc2)Oc2cc(OC(=O)N3CCOCC3)ccc21 | 20.5
13 | Cc1nn(C)c(C)c1S(=O)(=O)N1CCC(C(=O)NCC2COc3ccccc3O2)CC1 (stereo not drawn) | -5.22
14 | c1ccc2cc(C3N4CCCN34)ccc2c1 (stereo not drawn) | 22.1
15 | S=C1CN=C(c2ccccc2Cl)c2cc(Cl)ccc2N1 | 8.76
16 | CCc1ccc(-c2cc(C(F)(F)F)n3nc(C(=O)Nc4cnn(Cc5ccccc5C)c4)cc3n2)s1 | 5.41
17 | CC(C)[C@H](NC(=O)N1c2ccccc2NC(=O)[C@@H]1C(C)C)C(=O)N[C@@H](C(=O)O)c1ccccc1 | 13
18 | C=CCn1c(=O)n(CCOC)c(=O)c2sc3ccccc3c21 | -12.2
19 | O=C(CCCn1c(=S)[nH]c2cc3c(cc2c1=O)OCO3)NCc1ccccc1Cl | 23.7
20 | CCCn1nnnc1SCC(=O)Nc1sc(C)c(C)c1C#N | 0.801
21 | Cc1ccccc1-c1ncc(CN2CCN(C3CCCCC3)C(CCO)C2)cn1 (stereo not drawn) | -17.4
22 | CCN(CC)CCNC(=O)CS(=O)Cc1nc(-c2ccc(Cl)cc2)oc1C (stereo not drawn) | -29.2
23 | CN(C)Cc1c(C(=O)N/N=C/c2ccccc2OCc2c(F)cccc2Cl)nnn1-c1nonc1N | 21.9
24 | CCc1nnnn1-c1ccc([N+](=O)[O-])cc1C | 10.4
25 | O=C(O)[C@H]1CCCN1C(=O)c1ccccc1N1C(=O)[C@@H]2Cc3c([nH]c4ccccc34)C(c3cccc(Cl)c3)N2C1=O (stereo partly drawn) | 12.8
26 | COC(=O)c1c(C)[nH]c(C(=O)C(C)OC(=O)C2=NNC(=O)CC2)c1C (stereo not drawn) | -1.8
27 | O=C(Cc1cccc(C(F)(F)F)c1)Nc1ccccc1N1CCCC1 | 4.72

Row | SMILES | hERG current change (%, negative = inhibition) at 10uM [%]
28 | COCCCN(C(=O)c1ccco1)c1nc(-c2cc(OC)ccc2OC)cs1 | -4.07
29 | CCNC(=O)CN1c2cccc3cccc(c23)S1(=O)=O | 0.074
30 | COc1ccc(CCn2c(=O)[nH]c3cc(C(=O)N4CCN(c5ccccn5)CC4)ccc3c2=O)cc1OC | 10.1
31 | O=C(CN1CCN(C(=O)C2CCCO2)CC1)Nc1c(Cl)cccc1Cl (stereo not drawn) | 13.8
32 | O=C(NCc1ccco1)c1cc([N+](=O)[O-])ccc1Cl | 11.2
33 | CC(=O)Nc1c(C(=O)N2CCOCC2)cnn1-c1ccc(C)c(C)c1 | 9.22
34 | COc1cc(CN2CCc3ccccc3C2)cc([N+](=O)[O-])c1O | 8.65
35 | COC(=O)[C@H](CCSC)NC(=O)Nc1ccc(C(C)C)cc1 | -11.4
36 | CCS(=O)(=O)c1ccc(O)c(NC(=O)CCCC(=O)O)c1 | -10.7
37 | C=CCOC(=O)C1=C(C)Nc2ncnn2C1c1cccs1 (stereo not drawn) | 4.21
38 | O=C(CCC(=O)c1cccs1)NCCc1ccc(F)cc1 | 0.044
39 | N#Cc1cc2c(nc1Cl)CCCC2 | 4.96
40 | Cc1ccc(C)c(NC(=O)C(NCC(C)(C)N2CCOCC2)c2ccccc2)c1 (stereo not drawn) | -62.6
41 | Cc1cc(C(=O)CSc2nc(N)cc(=O)[nH]2)c(C)n1CCc1ccc(F)cc1 | 1.93
42 | CN(C)CCN(C(=O)c1ccc(C(=O)c2ccccc2)cc1)c1nc2cc3c(cc2s1)OCO3.Cl | 3.43
43 | O=C(c1ccco1)N1CCN(c2ncnc3sc4c(c23)CCC4)CC1 | -56.6
44 | CC12CC(NC(=O)N1c1ccc(C(=O)N3CCN(c4ccc(F)cc4)CC3)cc1)c1ccccc1O2 (stereo not drawn) | -8.38
45 | CCS(=O)(=O)c1nc(S(=O)(=O)c2ccc(C)cc2)c(N2CCOCC2)s1 | -11.1
46 | Cc1nn2cc(-c3ccc(Cl)cc3)cnc2c1Br | 10.3
47 | COc1cc(CNc2nc3c(C)cc(C)cc3s2)ccc1O.Cl | 27.3
48 | CC(C)(C)c1cc(=O)n2[nH]c(N)nc2n1 | 5.31
49 | O=[N+]([O-])c1ccc(-c2ccccc2)c([As](=O)(O)O)c1 | 11.9
50 | CCCc1[nH]n(-c2ccc([N+](=O)[O-])cc2)c(=O)c1C=NCCc1c[nH]c2ccccc12 | 8.42
51 | Cc1sc2nc(CN3CCCCC3)nc(Nc3ccc4c(c3)OCCO4)c2c1C | -85.8
52 | Cc1cc(C)cc(NC(=O)c2ccc(CSc3nnnn3C)cc2)c1 | -24
53 | CC(=O)Oc1ccc2c(c1)O/C(=C\c1ccncc1)C2=O | 16.2
54 | Cl.O=c1[nH]c2ccccc2n1CCCN1CCCCC1 | 16.5
